Assay results: the supplement of paper PMC4967469
A lower IC50 marks a more sensitive line; a fit beyond the top or the lowest dose is shown as a bound at that dose. AUC, from the same fit, is the share of area under the viability curve across the 256-fold dose range; the more sensitive the line, the further below 1. For some assays here: Any top dose called inferred comes from the curve model; the source does not state it. For some assays here: Drugs with an entry number were screened twice under separate entries, and the two screens often disagree.

Key:
Test in all cases: Viability of human cancer cell lines after 72 h of drug (GDSC screen)
PI-103 = compound: Oc1cccc(-c2nc(N3CCOCC3)c3oc4ncccc4c3n2)c1 [PI-103]; details: top dose 10.24 µM
Experimental: (§1)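 Human cancer cell lines in 384-well plates, medium with 10% serum, drug for 72 h over a 256-fold dose range (nine 2-fold or five 4-fold steps up to the top dose). Adherent lines were fixed and stained with the nucleic acid dye Syto60, suspension lines read with resazurin; signal relative to control wells, capped at 0 and 100%. One two-parameter sigmoid per drug and line, fitted in a mixed model over all curves with the slope shared within a line.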

Tretinoin = compound: CC1=C(/C=C/C(C)=C/C=C/C(C)=C/C(=O)O)C(C)(C)CCC1 [Tretinoin]; details: top dose 10 µM; top dose inferred
Experimental: as §1

BX-795 = compound: O=C(NCCCNc1nc(Nc2cccc(NC(=O)N3CCCC3)c2)ncc1I)c1cccs1 [BX-795]; details: top dose 5 µM; top dose inferred
Experimental: as §1

GSK690693 = compound: CCn1c(-c2nonc2N)nc2c(C#CC(C)(C)O)ncc(OC[C@H]3CCCNC3)c21 [GSK690693]; details: top dose 10.24 µM; top dose inferred
Experimental: as §1

SB-505124 = compound: Cc1cccc(-c2[nH]c(C(C)(C)C)nc2-c2ccc3c(c2)OCO3)n1 [SB-505124]; details: top dose 10 µM; top dose inferred
Experimental: as §1

UNC0638 = compound: COc1cc2c(NC3CCN(C(C)C)CC3)nc(C3CCCCC3)nc2cc1OCCCN1CCCC1 [UNC0638]
Experimental: as §1

[1] = top dose 20 µM, screen: GDSC drug entry 1236, top dose inferred
[2] = top dose 40 µM, screen: GDSC drug entry 245

In the case of KU-19-19 (bladder, adherent), the AUC (PI-103) is reported as 0.978, the IC50 (PI-103) is reported as over 10.2 µM and the AUC (Tretinoin) is reported as 0.97. It also gave an IC50 (Tretinoin) of over 10 µM, an AUC (BX-795) of 0.908 and an IC50 (BX-795) of over 5 µM. The AUC (GSK690693) was 0.984, the IC50 (GSK690693) was over 10.2 µM and the AUC (SB-505124) was 0.986. For the same cell line, the IC50 (SB-505124) was over 10 µM, the AUC (UNC0638; [1]) was 0.789 and the IC50 (UNC0638; [1]) was 8.81 µM. For the same cell line, the AUC (UNC0638; [2]) was 0.987 and the IC50 (UNC0638; [2]) was over 40 µM.
KYAE-1 (oesophagus, suspension) was tested, and the AUC (PI-103) was 0.238, the IC50 (PI-103) was 0.101 µM and the AUC (Tretinoin) was 0.799. For the same cell line, the IC50 (Tretinoin) was 5.39 µM, the AUC (BX-795) was 0.975 and the IC50 (BX-795) was over 5 µM. The AUC (GSK690693) was 0.362, the IC50 (GSK690693) was 0.256 µM and the AUC (SB-505124) was 0.948. The IC50 (SB-505124) was over 10 µM, the AUC (UNC0638; [1]) was 0.796 and the IC50 (UNC0638; [1]) was 10.5 µM. The AUC (UNC0638; [2]) was 0.724 and the IC50 (UNC0638; [2]) was 11.6 µM.
With KYM-1 (rhabdomyosarcoma, adherent) the AUC (PI-103) was 0.641, the IC50 (PI-103) was 1.47 µM and the AUC (Tretinoin) was 0.957. The IC50 (Tretinoin) was over 10 µM, the AUC (BX-795) was 0.861 and the IC50 (BX-795) was 3.29 µM. It also gave an AUC (GSK690693) of 0.991, an IC50 (GSK690693) of over 10.2 µM and an AUC (SB-505124) of 0.852. For the same cell line, the IC50 (SB-505124) was 6.06 µM, the AUC (UNC0638; [1]) was 0.864 and the IC50 (UNC0638; [1]) was 13.4 µM. For the same cell line, the AUC (UNC0638; [2]) was 0.894 and the IC50 (UNC0638; [2]) was 35.9 µM.
KYSE-50 (oesophagus, adherent) was tested, and the AUC (PI-103) was 0.225, the IC50 (PI-103) was 0.111 µM and the AUC (Tretinoin) was 0.927. For the same cell line, the IC50 (Tretinoin) was over 10 µM, the AUC (BX-795) was 0.888 and the IC50 (BX-795) was 4.8 µM. It also gave an AUC (GSK690693) of 0.923, an IC50 (GSK690693) of over 10.2 µM and an AUC (SB-505124) of 0.989. It also gave an IC50 (SB-505124) of over 10 µM, an AUC (UNC0638; [1]) of 0.989 and an IC50 (UNC0638; [1]) of over 20 µM. For the same cell line, the AUC (UNC0638; [2]) was 0.916 and the IC50 (UNC0638; [2]) was over 40 µM.
KYSE-150 (oesophagus, adherent) showed an AUC (PI-103) of 0.778, an IC50 (PI-103) of 3.98 µM and an AUC (Tretinoin) of 0.987. For the same cell line, the IC50 (Tretinoin) was over 10 µM, the AUC (BX-795) was 0.841 and the IC50 (BX-795) was 3.27 µM. For the same cell line, the AUC (GSK690693) was 0.945, the IC50 (GSK690693) was over 10.2 µM and the AUC (SB-505124) was 0.988. For the same cell line, the IC50 (SB-505124) was over 10 µM, the AUC (UNC0638; [1]) was 0.831 and the IC50 (UNC0638; [1]) was 11.9 µM. It also gave an AUC (UNC0638; [2]) of 0.901 and an IC50 (UNC0638; [2]) of over 40 µM.
For KYSE-220 (oesophagus, adherent), the AUC (PI-103) was 0.419, the IC50 (PI-103) was 0.379 µM and the AUC (Tretinoin) was 0.886. The IC50 (Tretinoin) was over 10 µM, the AUC (BX-795) was 0.801 and the IC50 (BX-795) was 2.6 µM. For the same cell line, the AUC (GSK690693) was 0.8, the IC50 (GSK690693) was 5.29 µM and the AUC (SB-505124) was 0.949. It also gave an IC50 (SB-505124) of over 10 µM, an AUC (UNC0638; [1]) of 0.83 and an IC50 (UNC0638; [1]) of 13.5 µM. For the same cell line, the AUC (UNC0638; [2]) was 0.885 and the IC50 (UNC0638; [2]) was over 40 µM.
KYSE-410 (oesophagus, adherent) was tested, and the AUC (PI-103) was 0.98, the IC50 (PI-103) was over 10.2 µM and the AUC (Tretinoin) was 0.968. For the same cell line, the IC50 (Tretinoin) was over 10 µM, the AUC (BX-795) was 0.822 and the IC50 (BX-795) was 3.19 µM. It also gave an AUC (GSK690693) of 0.913, an IC50 (GSK690693) of over 10.2 µM and an AUC (SB-505124) of 0.984. The IC50 (SB-505124) was over 10 µM, the AUC (UNC0638; [1]) was 0.802 and the IC50 (UNC0638; [1]) was 10.6 µM. It also gave an AUC (UNC0638; [2]) of 0.856 and an IC50 (UNC0638; [2]) of 35.6 µM.
KYSE-450 (oesophagus, adherent) showed an AUC (PI-103) of 0.342, an IC50 (PI-103) of 0.24 µM and an AUC (Tretinoin) of 0.961. The IC50 (Tretinoin) was over 10 µM, the AUC (BX-795) was 0.949 and the IC50 (BX-795) was over 5 µM. The AUC (GSK690693) was 0.88, the IC50 (GSK690693) was 9.55 µM and the AUC (SB-505124) was 0.98. The IC50 (SB-505124) was over 10 µM, the AUC (UNC0638; [1]) was 0.8 and the IC50 (UNC0638; [1]) was 9.05 µM. It also gave an AUC (UNC0638; [2]) of 0.643 and an IC50 (UNC0638; [2]) of 6.05 µM.
KYSE-510 (oesophagus, adherent) showed an AUC (PI-103) of 0.91, an IC50 (PI-103) of 10.2 µM and an AUC (Tretinoin) of 0.938. It also gave an IC50 (Tretinoin) of over 10 µM, an AUC (BX-795) of 0.864 and an IC50 (BX-795) of 3.21 µM. It also gave an AUC (GSK690693) of 0.98, an IC50 (GSK690693) of over 10.2 µM and an AUC (SB-505124) of 0.991. It also gave an IC50 (SB-505124) of over 10 µM, an AUC (UNC0638; [1]) of 0.827 and an IC50 (UNC0638; [1]) of 9.55 µM. It also gave an AUC (UNC0638; [2]) of 0.847 and an IC50 (UNC0638; [2]) of 22.3 µM.
Cell Line KYSE-520 (oesophagus, adherent) has an AUC (PI-103) of 0.481, an IC50 (PI-103) of 0.558 µM and an AUC (Tretinoin) of 0.957. It also gave an IC50 (Tretinoin) of over 10 µM, an AUC (BX-795) of 0.902 and an IC50 (BX-795) of over 5 µM. For the same cell line, the AUC (GSK690693) was 0.907, the IC50 (GSK690693) was over 10.2 µM and the AUC (SB-505124) was 0.979. The IC50 (SB-505124) was over 10 µM, the AUC (UNC0638; [1]) was 0.825 and the IC50 (UNC0638; [1]) was 18 µM. For the same cell line, the AUC (UNC0638; [2]) was 0.803 and the IC50 (UNC0638; [2]) was 28.4 µM.
